# In PubChem BioAssay (Tox21):
# Values joined by “and” are separate entries in the source; they are usually repeats but may differ in a detail not shown here. Equal values may be shown once. Where a structure was tested more than once in an assay, its records may differ in their call. Active and inactive are the calls of the source. Unless noted, calls come from the whole dose curve; as a rule, active = well fitted curve in the direction sought with a large enough effect in the repeat runs; inconclusive = weak or mixed curves; inactive = no such curve, though single readings can be large; an effect the other way counts as inactive or inconclusive.
# Key:
# [1] = biological target: Androgen receptor (Homo sapiens) (UniProt P10275); assay: qHTS assay to identify small molecule antagonists of the androgen receptor (AR) signaling pathway (AID 743035; active = well fitted inhibition curve with a large enough effect in the signal ratio in the repeat runs, not every such curve was filed as active; inconclusive = weak or mixed curves, or effect the other way; inactive = no such curve, though single readings can be large or run the other way; the % refers to the signal ratio; for activity change, negative = inhibition: % is set by controls: 0 for no effect and ±100 for the full control effect); conditions: HEK293 AR-UAS-bla, R1881-stimulated, beta-lactamase FRET, 16 h; activity change, negative = inhibition: at 58.5 µM (top of the series) unless noted
# Outline: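 In this cell-based reporter screen, compounds were tested in concentration series against R1881-activated HEK293 cells expressing beta-lactamase under UAS control; after 16 h at 37C, FRET substrate was added and fluorescence read 2 h later.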
# [2] = qHTS assay to identify small molecule antagonists of the thyroid receptor (TR) signaling pathway - cell viability counter screen (AID 743064); conditions: GH3.TRE-Luc viability, CellTiter-Fluor, 24 h; activity change, negative = cytotoxic: at 70.3 µM (top of the series); note: nearly all actives have a fitted effect of over 50% in size; for activity change, negative = cytotoxic: % is set by controls: 0 for no effect and ±100 for the full control effect
# Outline: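 Compounds were tested on GH3.TRE-Luc cells in the presence of T3 at 1 nM final. Following 23.5 h at 37 °C, cell viability was quantified by CellTiter-Fluor.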
# [3] = qHTS assay to identify small molecule antagonists of the thyroid receptor (TR) signaling pathway (AID 743065); note: nearly all actives have a fitted effect of over 55% in size
# Outline: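 GH3.TRE-Luc rat pituitary cells (two TREs driving luciferase) were dosed with compound, then stimulated with 1 nM T3 (final) for 23.5 h at 37 C. ONE-Glo luminescence was the read-out, with CellTiter-Fluor fluorescence as the cytotoxicity counter-screen.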
# [4] = biological target: Estrogen receptor (Homo sapiens) (UniProt P03372); assay: qHTS assay to identify small molecule agonists of the estrogen receptor alpha (ER-alpha) signaling pathway using the BG1 cell line (AID 743079); conditions: BG1Luc4E2 cells, ERE-luciferase agonist, 22 h; activation: at 70.3 µM (top of the series) unless noted; note: nearly all actives have a fitted effect of over 20% in size
# Aromatase (Homo sapiens) = Aromatase (Homo sapiens) (UniProt P11511); assay: qHTS assay to identify aromatase inhibitors (AID 743083); note: nearly all actives have a fitted effect of over 55% in size
# [5] = qHTS assay to identify aromatase inhibitors - cell viability counter screen (AID 743084);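 note: cells stimulated with testosterone during compound exposure; nearly all actives have a fitted effect of over 55% in size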
# [6] = qHTS assay to identify small molecule antagonists of the estrogen receptor alpha (ER-alpha) signaling pathway - cell viability counter screen (AID 743074; calls by dose curve; note: nearly all actives have a fitted effect of over 45% in size)
# [7] = biological target: Peroxisome proliferator-activated receptor gamma (Homo sapiens) (UniProt P37231); assay: qHTS assay to identify small molecule antagonists of the peroxisome proliferator-activated receptor gamma (PPARg) signaling pathway (AID 743191; calls by dose curve; note: nearly all actives have a fitted effect of over 30% in size; for ratio activity, negative = inhibition: % is set by controls: 0 for no effect and ±100 for the full control effect); conditions: HEK293H PPARg-UAS-bla, beta-lactamase ratio, antagonist, 17 h; ratio activity, negative = inhibition: at 62.6 µM (top of the series) unless noted
# Outline: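 GeneBLAzer PPARg UAS-bla HEK293H cells, 5 h post-plating, exposed to compounds 17 h at 37C. LiveBLAzer B/G FRET substrate added for 1 h at room temperature; beta-lactamase reporter read by fluorescence intensity.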
# [8] = biological target: Androgen receptor (Homo sapiens) (UniProt P10275); assay: qHTS assay to identify small molecule agonists of the androgen receptor (AR) signaling pathway (AID 743036; active = well fitted activation curve with a large enough effect in the signal ratio in the repeat runs, with a control signal flat, not every such curve was filed as active; inconclusive = weak or mixed curves, or effect the other way; inactive = no such curve, though single readings can be large or run the other way; the % refers to the signal ratio; for activation: % is set by controls: 0 for no effect and ±100 for the full control effect); conditions: HEK293 AR-UAS-bla GripTite, beta-lactamase FRET ratio, 16 h; activation: at 62.4 µM (top of the series) unless noted
# Outline: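 Beta-lactamase under UAS control, stably integrated in HEK293 GripTite cells, reports receptor activation. After 16 h compound treatment, cells received FRET substrate for 2 h at room temperature before fluorescence reading.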
# [9] = biological target: Androgen receptor (Homo sapiens) (UniProt P10275); assay: qHTS assay to identify small molecule antagonists of the androgen receptor (AR) signaling pathway using the MDA cell line (AID 743042; note: nearly all actives have a fitted effect of over 55% in size)
# Outline: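 MDA-kb2 breast carcinoma cells carrying MMTV-luciferase (AR/GR responsive) were co-treated with compounds and the agonist R1881 for 16 h at 37C. Inhibition read as ONE-Glo luminescence; CellTiter-Fluor fluorescence measured in parallel for cytotoxicity.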
# [10] = qHTS assay to identify small molecule antagonists of the androgen receptor (AR) signaling pathway using the MDA cell line - cell viability counter screen (AID 743041; note: nearly all actives have a fitted effect of over 45% in size); conditions: MDA-kb2 viability, CellTiter-Fluor, 16 h, cells co-treated with R1881 androgen agonist; viability change, negative = cytotoxic: at 70.3 µM (top of the series) unless noted
# Outline: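 Compound exposure lasted 16 h at 37C in MDA-kb2 AR-luc cells stimulated with R1881. Protease-based CellTiter-Fluor reagent was applied for the final 30 min and fluorescence measured.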
# [11] = biological target: Estrogen receptor (Homo sapiens) (UniProt P03372); assay: qHTS assay to identify small molecule antagonists of the estrogen receptor alpha (ER-alpha) signaling pathway (AID 743069; active = well fitted curve in the direction sought with a large enough effect in the signal ratio in the repeat runs, not every such curve was filed as active; inconclusive = weak or mixed curves, or effect the other way; inactive = no such curve, though single readings can be large or run the other way; the % refers to the signal ratio); conditions: HEK293 ER-alpha-UAS-bla, beta-lactamase ratio, antagonist mode; activity, negative = inhibition: at 69.4 µM (top of the series)
# Outline: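 In this cell-based reporter format, GripTite HEK293 cells harbouring ER-alpha-UAS-bla were grown overnight with 2% charcoal-stripped FBS, dosed with DMSO-dissolved compounds, then challenged with 17beta-estradiol. After 18 hr at 37C, beta-lactamase activity was detected by FRET fluorescence.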
# [12] = biological target: Peroxisome proliferator-activated receptor gamma (Homo sapiens) (UniProt P37231); assay: qHTS assay to identify small molecule agonists of the peroxisome proliferator-activated receptor gamma (PPARg) signaling pathway (AID 743094; active = well fitted activation curve with a large enough effect in the signal ratio in the repeat runs, not every such curve was filed as active; inconclusive = weak or mixed curves, or effect the other way; inactive = no such curve, though single readings can be large or run the other way; the % refers to the signal ratio); conditions: HEK293H PPARg-UAS-bla, beta-lactamase FRET ratio, 17 h; activation: at 57 µM (top of the series) unless noted
# Outline: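 Cell-based bla reporter, HEK293H background, PPARg-driven UAS. Pre-incubation 5 h, 37C, 5% CO2. Compound 17 h, 37C. Substrate 1 h RT; fluorescence.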
# [13] = system: thyroid hormone receptor (rat, GH3 cells); assay: qHTS assay to identify small molecule agonists of the thyroid receptor (TR) signaling pathway (AID 743066; calls by dose curve); conditions: GH3.TRE-Luc cells, TR agonist luciferase, 24 h; activation: at 83.9 µM (top of the series) unless noted
# [14] = biological target: Aryl hydrocarbon receptor (Homo sapiens) (UniProt P35869); assay: qHTS assay to identify small molecule that activate the aryl hydrocarbon receptor (AhR) signaling pathway (AID 743085); note: nearly all actives have a fitted effect of over 15% in size
# Outline: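 24 h compound exposure, 37C, HepG2-derived HG2L7.5c1 cells with DRE-responsive luciferase. Readouts: fluorescence viability, then luminescence at room temperature after 30 min.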
# [15] = biological target: Estrogen receptor (Homo sapiens) (UniProt P03372); assay: qHTS assay to identify small molecule agonists of the estrogen receptor alpha (ER-alpha) signaling pathway (AID 743075; calls by dose curve); conditions: HEK293 ER-alpha-UAS-bla, beta-lactamase FRET ratio, 18 h; activation: at 70.1 µM (top of the series)
# [16] = qHTS assay to identify small molecule antagonists of the estrogen receptor alpha (ER-alpha) signaling pathway using the BG1 cell line - cell viability counter screen (AID 743081);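 note: compound given together with 17beta-estradiol as the ER stimulus; nearly all actives have a fitted effect of over 45% in size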
# Potency is the fitted concentration of half-maximal effect; tags give direction and shape of the fitted curve or compound fluorescence and quenching.
# Chain of UniProt P11511 (P11511 whole entry, looked up): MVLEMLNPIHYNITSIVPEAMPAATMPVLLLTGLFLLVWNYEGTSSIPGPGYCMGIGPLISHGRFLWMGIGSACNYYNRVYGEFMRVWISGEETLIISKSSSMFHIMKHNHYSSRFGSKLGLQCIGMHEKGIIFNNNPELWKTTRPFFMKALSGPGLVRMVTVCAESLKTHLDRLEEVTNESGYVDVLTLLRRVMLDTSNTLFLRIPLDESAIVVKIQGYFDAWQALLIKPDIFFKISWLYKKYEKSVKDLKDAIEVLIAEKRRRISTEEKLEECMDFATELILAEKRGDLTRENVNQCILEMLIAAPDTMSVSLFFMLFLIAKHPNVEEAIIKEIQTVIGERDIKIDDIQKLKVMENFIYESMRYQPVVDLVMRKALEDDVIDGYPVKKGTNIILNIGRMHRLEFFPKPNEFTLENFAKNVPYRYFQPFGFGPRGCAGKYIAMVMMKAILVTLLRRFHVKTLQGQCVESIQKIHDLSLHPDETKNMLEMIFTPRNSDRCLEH
# Chain of UniProt P03372 (P03372 whole entry, looked up): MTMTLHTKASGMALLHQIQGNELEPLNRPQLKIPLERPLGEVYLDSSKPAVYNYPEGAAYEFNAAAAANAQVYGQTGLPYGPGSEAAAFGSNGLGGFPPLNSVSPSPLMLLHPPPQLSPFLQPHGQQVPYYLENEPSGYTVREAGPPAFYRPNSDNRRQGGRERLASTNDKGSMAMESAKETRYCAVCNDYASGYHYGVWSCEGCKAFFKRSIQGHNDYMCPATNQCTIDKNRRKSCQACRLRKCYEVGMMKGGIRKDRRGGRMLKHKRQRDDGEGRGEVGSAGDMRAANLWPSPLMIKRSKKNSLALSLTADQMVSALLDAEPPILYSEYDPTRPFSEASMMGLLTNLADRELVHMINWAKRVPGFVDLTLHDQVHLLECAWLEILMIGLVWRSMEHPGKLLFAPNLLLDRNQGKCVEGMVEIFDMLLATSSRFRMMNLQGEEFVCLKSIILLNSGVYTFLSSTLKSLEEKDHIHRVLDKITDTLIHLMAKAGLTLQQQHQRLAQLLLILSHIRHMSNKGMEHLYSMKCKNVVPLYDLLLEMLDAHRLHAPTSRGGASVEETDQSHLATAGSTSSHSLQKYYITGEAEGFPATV
# Chain of UniProt P37231 (P37231 whole entry, looked up): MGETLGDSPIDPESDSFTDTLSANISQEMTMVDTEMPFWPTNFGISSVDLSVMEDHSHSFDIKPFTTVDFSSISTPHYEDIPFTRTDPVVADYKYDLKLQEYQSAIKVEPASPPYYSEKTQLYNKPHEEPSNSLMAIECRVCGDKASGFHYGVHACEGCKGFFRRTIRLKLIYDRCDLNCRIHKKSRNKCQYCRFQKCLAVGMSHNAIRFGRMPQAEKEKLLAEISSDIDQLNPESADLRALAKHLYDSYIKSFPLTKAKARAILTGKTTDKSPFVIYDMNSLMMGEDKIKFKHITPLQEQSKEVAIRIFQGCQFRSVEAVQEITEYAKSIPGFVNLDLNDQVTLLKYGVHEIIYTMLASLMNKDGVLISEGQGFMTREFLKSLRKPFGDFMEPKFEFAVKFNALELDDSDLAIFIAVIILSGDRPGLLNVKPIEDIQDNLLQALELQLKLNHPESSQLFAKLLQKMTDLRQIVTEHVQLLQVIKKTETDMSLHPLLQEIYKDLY
# Chain of UniProt P10275 (P10275 whole entry, looked up): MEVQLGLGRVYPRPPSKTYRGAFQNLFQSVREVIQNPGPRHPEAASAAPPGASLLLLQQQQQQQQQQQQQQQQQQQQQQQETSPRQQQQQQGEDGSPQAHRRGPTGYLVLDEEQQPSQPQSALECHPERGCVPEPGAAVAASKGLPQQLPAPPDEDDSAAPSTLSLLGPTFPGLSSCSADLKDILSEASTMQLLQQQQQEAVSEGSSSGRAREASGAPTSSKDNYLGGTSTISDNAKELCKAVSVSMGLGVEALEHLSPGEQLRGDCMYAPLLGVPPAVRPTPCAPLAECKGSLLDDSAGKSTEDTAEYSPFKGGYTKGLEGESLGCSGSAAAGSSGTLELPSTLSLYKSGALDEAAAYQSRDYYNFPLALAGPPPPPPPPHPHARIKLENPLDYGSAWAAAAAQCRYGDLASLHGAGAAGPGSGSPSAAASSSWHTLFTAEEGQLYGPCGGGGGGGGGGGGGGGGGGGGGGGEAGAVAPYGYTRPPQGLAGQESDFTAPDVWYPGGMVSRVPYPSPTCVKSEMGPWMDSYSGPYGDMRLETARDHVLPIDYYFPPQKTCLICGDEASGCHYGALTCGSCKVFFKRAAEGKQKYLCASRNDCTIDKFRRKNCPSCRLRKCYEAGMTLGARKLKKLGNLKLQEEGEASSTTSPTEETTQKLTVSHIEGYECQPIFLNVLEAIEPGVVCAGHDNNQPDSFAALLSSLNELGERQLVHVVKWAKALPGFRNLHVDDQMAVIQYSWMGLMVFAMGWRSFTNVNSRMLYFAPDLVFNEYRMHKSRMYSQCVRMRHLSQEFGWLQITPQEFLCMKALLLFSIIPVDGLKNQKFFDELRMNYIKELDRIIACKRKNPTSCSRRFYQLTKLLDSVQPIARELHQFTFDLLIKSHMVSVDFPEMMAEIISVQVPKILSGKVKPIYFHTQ
# Chain of UniProt P35869 (P35869 whole entry, looked up): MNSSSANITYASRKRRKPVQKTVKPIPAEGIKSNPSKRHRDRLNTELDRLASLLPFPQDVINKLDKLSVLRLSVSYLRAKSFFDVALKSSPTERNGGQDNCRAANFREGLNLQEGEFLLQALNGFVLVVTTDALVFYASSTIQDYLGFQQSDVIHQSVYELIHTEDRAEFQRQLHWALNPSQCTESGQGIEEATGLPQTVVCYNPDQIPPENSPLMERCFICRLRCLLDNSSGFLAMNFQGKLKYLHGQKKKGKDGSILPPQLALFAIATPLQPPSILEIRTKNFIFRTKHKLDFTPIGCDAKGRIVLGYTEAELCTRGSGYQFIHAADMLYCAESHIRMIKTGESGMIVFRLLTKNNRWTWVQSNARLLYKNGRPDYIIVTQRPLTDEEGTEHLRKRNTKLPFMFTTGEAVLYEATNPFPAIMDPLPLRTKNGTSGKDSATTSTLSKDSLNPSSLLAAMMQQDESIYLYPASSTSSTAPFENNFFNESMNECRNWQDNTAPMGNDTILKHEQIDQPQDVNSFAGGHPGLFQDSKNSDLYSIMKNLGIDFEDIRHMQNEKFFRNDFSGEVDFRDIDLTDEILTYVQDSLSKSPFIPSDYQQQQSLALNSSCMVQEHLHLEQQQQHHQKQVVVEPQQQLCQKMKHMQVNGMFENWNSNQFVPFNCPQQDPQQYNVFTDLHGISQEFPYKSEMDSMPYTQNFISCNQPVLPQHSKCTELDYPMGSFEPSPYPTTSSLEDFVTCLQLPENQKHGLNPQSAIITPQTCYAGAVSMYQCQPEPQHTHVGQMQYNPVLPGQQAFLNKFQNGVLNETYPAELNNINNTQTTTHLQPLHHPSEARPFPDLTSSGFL
compound,measurement,setting,value
CCCCCCCc1ccc(O)cc1,Potency,[1],inconclusive: 24.5 µM
same,Potency,[2],"inconclusive: 54.5 µM [cytotoxic, partial curve]"
same,Potency,[3],inconclusive: 68.6 µM [inhibitor]
same,Potency,[4],active: 24.3 µM
same,Potency,Aromatase (Homo sapiens),"inconclusive: 61.1 µM [inhibitor, partial curve]"
same,Potency,[5],"inconclusive: 30.6 µM [cytotoxic, partial curve]"
CC(C)=CC1C(C(=O)OC(C#N)c2cccc(Oc3ccccc3)c2)C1(C)C (configuration not stated),Potency,[1],inactive
same,Potency,[2],inactive
same,Potency,[3],"inconclusive: 68.6 µM [inhibitor, single point]"
same,Potency,[6],"inconclusive: 61.6 µM [cytotoxic, partial curve, poor fit]"
same,Potency,[7],inactive
O=C(O)CC[N+](=O)[O-],Potency,[8],inactive
same,Potency,[9],"inconclusive: 70.8 µM [inhibitor, single point]"
same,Potency,Aromatase (Homo sapiens),"inconclusive: 70.8 µM [inhibitor, single point]"
same,Potency,[5],"inconclusive: 63.1 µM [cytotoxic, partial curve, poor fit]"
same,Potency,[7],inactive
c1ccc2c(c1)-c1cccc3cccc-2c13,Potency,[10],"inconclusive: 77.7 µM [rising, single point]"
CCCCCCCCOC(=O)c1ccccc1C(=O)OCCCCCCCC,"activity change, negative = inhibition",[1],inconclusive: -27.7% and inconclusive: 2.49%
same,Potency,[2],inactive
same,Potency,[11],"inconclusive: 48.8 µM [rising, single point]"
same,Potency,[12],active: 54.8 µM
O=P(OCC(Br)CBr)(OCC(Br)CBr)OCC(Br)CBr (configuration not stated),Potency,[10],"inconclusive: 58 µM [cytotoxic, single point]"
same,Potency,[9],"inconclusive: 78 µM [inhibitor, single point] and inconclusive: 58 µM [inhibitor, single point]"
same,Potency,[2],active: 43.8 µM and active: 51.7 µM
same,Potency,[13],"inconclusive: 11 µM [inhibitor, partial curve, poor fit]"
same,Potency,[11],active: 62.5 µM [inconclusive] and active: 46.5 µM [inconclusive]
same,Potency,[6],"inconclusive: 9.9 µM [rising, partial curve, poor fit]"
same,Potency,[4],"inconclusive: 61.9 µM [inhibitor, single point]"
same,Potency,Aromatase (Homo sapiens),active: 61.9 µM
same,Potency,[5],"inconclusive: 69.5 µM [cytotoxic, single point]"
same,Potency,[14],"inconclusive: 65.1 µM [activator, single point]"
same,Potency,[12],"inconclusive: 44.2 µM [inhibitor, partial curve] and inconclusive: 23.3 µM [inhibitor, partial curve, poor fit]"
CCOC(=O)c1ccccc1C(=O)OCC,Potency,[10],inactive
COP(=O)(O)OC,Potency,[1],inactive
same,Potency,[15],inactive
CCOP(=S)(OCC)SC(CCl)N1C(=O)c2ccccc2C1=O (configuration not stated),Potency,[1],"inconclusive: 54.9 µM [falling, single point]"
same,Potency,[2],"inconclusive: 6.86 µM [rising, single point]"
same,Potency,[3],"inconclusive: 77 µM [inhibitor, single point]"
same,Potency,[16],"inconclusive: 68.6 µM [cytotoxic, partial curve, poor fit]"
O=C1C(Cl)=C(Cl)C(=O)C(Cl)=C1Cl,Potency,[8],"inconclusive: 8.68 µM [activator, full curve, poor fit] and inconclusive: 43.6 µM"
same,Potency,[10],"inconclusive: 60.9 µM [cytotoxic, partial curve, poor fit] and inconclusive: 68.6 µM [cytotoxic, partial curve, poor fit]"
same,Potency,[9],active: 34.2 µM and active: 30.6 µM
same,Potency,[3],active: 9.65 µM and active: 5.45 µM
same,Potency,[6],"inconclusive: 21.8 µM [cytotoxic, full curve]"
same,Potency,[15],"inconclusive: 38.8 µM [activator, partial curve] and active: 43.7 µM [activator]"
same,Potency,[4],"inconclusive: 54.5 µM [inhibitor, partial curve]"
same,Potency,[16],"inconclusive: 27.3 µM [cytotoxic, single point]"
same,Potency,[5],active: 10.8 µM and active: 13.7 µM
same,Potency,[12],"inconclusive: 12.3 µM [fluorescent, full curve] and inconclusive: 13.8 µM [fluorescent, full curve]"
same,Potency,[7],"inconclusive: 7.73 µM [fluorescent, full curve] and inconclusive: 4.36 µM"
Cc1ccc2ccccc2c1,Potency,[8],inactive
same,Potency,[9],inactive
COP(N)(=S)Oc1ccccc1C(=O)OC(C)C (configuration not stated),Potency,[1],inactive
same,Potency,[2],"inconclusive: 10.9 µM [rising, full curve, poor fit]"
same,Potency,[6],inactive
same,activation,[4],inconclusive: 12.4% [phenotype inactive]
same,Potency,[14],"inconclusive: 68.6 µM [activator, single point]"
